# Screen size: about 410,000 compounds; about 530 (0.13%) were called active. The inconclusive results got no clear call from the source; some entries with a clear call stand among them for comparison. Calls come from the whole dose curve; as a rule, active = well fitted inhibition curve with a large enough effect; inconclusive = small, poorly fitted or top-dose-only effect, or another doubt; inactive = no such curve, though single readings can be large or run the other way. A potency beside an inconclusive call is a rough fit, not a confirmed value.
# Test: qHTS of GLP-1 Receptor Inverse Agonists: Cytotox Screen
# Conditions: HEK293 cAMP-luciferase reporter cells, luminescence, 24 h; activity change, negative = inhibition: at 38.3 µM (top of the series) unless noted
# Procedure, shortened: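 Here, cytotoxicity is scored as loss of luminescence. The MLSMR collection was tested on cells seeded in medium containing 10% Nu serum, with a 24 hr compound exposure preceded by 12 hours of culture.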
# % is set by controls: 0 for no effect and ±100 for the full control effect; potency is the fitted concentration of half-maximal effect.
Structure (SMILES),Potency,"activity change, negative = inhibition"
Cc1ccccc1OCc1n(CC(=O)OC2CC(C)CCC2C(C)C)c2ccccc2[n+]1C (stereo unspecified),"inconclusive: 12.6 µM [inhibitor, single point]",
COc1cc2nc(Nc3ccc(C)c(Cl)c3)nc(N)c2cc1OC,"inconclusive: 10 µM [inhibitor, partial curve]",
O=C(Nc1ncc(S(=O)(=O)c2ccc([N+](=O)[O-])cc2)s1)c1cccc2ccccc12,,inactive: -23.2%
NC(=S)N/N=C1\CCOc2ccc(Cl)cc21,"inconclusive: 3.98 µM [inhibitor, partial curve, poor fit]",
Cc1ccc(NS(=O)(=O)c2cccc(C(=O)NC3CCN(Cc4ccccc4)CC3)c2)c(C)c1,active: 11.2 µM,
Cc1nc(SCc2ccc(F)cc2)c([N+](=O)[O-])[nH]1,"inconclusive: 28.2 µM [inhibitor, single point]",
CC(C)(C)c1nc(SCC(=O)c2ccccc2)c2ccccc2n1,,inactive: 8.14%
COC(=O)c1ccc(S(=O)(=O)N2CCCCC2)o1,,inactive: 2.22%
COc1ccc(C(CNC(=O)c2cc(SC)ccc2Cl)N(C)C)cc1 (stereo unspecified),"inconclusive: 14.1 µM [inhibitor, single point]",
O=C(Nc1nnc(-c2ccc3c(c2)CCCC3)o1)c1ccccc1Cl,"inconclusive: 28.2 µM [inhibitor, single point]",
Fc1ccc(-c2ccc(NCCN3CCOCC3)nn2)cc1,active: 10 µM,
COc1ccc(NC(=O)CSc2nc(N)c(C#N)cc2C#N)cc1,,inactive: 0.18%
O=C(c1cccc(Cl)c1)N(Cc1ccco1)Cc1ccccc1Cl,,inactive: -7.53%
CC(C)c1ccc(NC(=O)Nc2nc(C(N)COCc3ccccc3)cs2)cc1 (stereo unspecified),"inconclusive: 28.2 µM [inhibitor, single point]",
CC(=O)c1ccc(S(=O)c2ccccc2)cc1 (stereo unspecified),,inactive: -1.68%
CC(C)N(Cc1nnc(-c2ccc(Cl)cc2)o1)C(=O)c1cc2ccccc2o1,,inactive: -0.992%
O=C(N/N=C/C=C/c1ccccc1)c1ccncc1,"inconclusive: 11.2 µM [inhibitor, single point]",
CCc1ccc(/C=N/NC(=O)c2cc(-c3ccncc3)nc3ccccc23)s1,"inconclusive: 3.98 µM [inhibitor, full curve]",
C#CCOCCOCCOCCNc1nc(N2CCN(C(=O)[C@H](CCCN=C(N)N)n3cc(C(N)[C@@H](C)CC)nn3)CC2)nc(N2CCN(C(=O)[C@H](CC(N)=O)n3cc([C@@H](N)CC(N)=O)nn3)CC2)n1 (stereo partly specified),"inconclusive: 3.98 µM [inhibitor, full curve, poor fit]",
CCOC(=O)CC(=O)CSc1ncnc2c1oc1ccccc12,,inactive: 12.2%
CCCCCCNC(=O)CNC(=S)N(Cc1cccs1)C1CCCCC1,"inconclusive: 28.2 µM [inhibitor, single point]",

Structure (SMILES),Potency,"activity change, negative = inhibition"
CCOC(=O)c1scc(-c2ccc(C)cc2)c1S(=O)(=O)Nc1cccc(CC)c1,,inactive: 30.7%
COc1cc(NC(=O)c2cccs2)c(OC)cc1NC(=O)CCC(=O)Nc1cccc2ncccc12,"inconclusive: 2.51 µM [inhibitor, partial curve, poor fit]",
O=[N+]([O-])c1ccc(OCCO)c(P(=O)(c2ccccc2)c2ccccc2)c1,"inconclusive: 2.82 µM [inhibitor, full curve, poor fit]",
O=C(N/N=C/c1cc(Br)ccc1O)c1ccccc1Cl,"inconclusive: 2 µM [inhibitor, full curve, poor fit]",
O=C(/C=C/c1ccco1)Oc1cccc2cccnc12,"inconclusive: 0.501 µM [inhibitor, full curve, poor fit]",
CCN1CCc2c(sc(NC(=O)c3cc4ccccc4cc3OC)c2C(N)=O)C1,"inconclusive: 28.2 µM [inhibitor, single point]",
COc1ccc(N2C(=O)C3C4c5ccccc5C(C=Nc5ccc(C)cc5C)(c5ccccc54)C3C2=O)cc1 (stereo unspecified),"inconclusive: 28.2 µM [inhibitor, single point]",
CCOCCCNC(=O)Nc1cc(C(=O)NCc2ccc(C(C)C)cc2)ccc1N1CCCC1,,inactive: -12.9%
O=C(CCS(=O)(=O)c1ccccc1)Nc1cccc(-c2nc3ccccc3s2)c1,"inconclusive: 10 µM [inhibitor, single point]",
O=C1NN(c2ccccc2)C(=O)/C1=C/c1ccc(-c2cccc(C(=O)O)c2)o1,"inconclusive: 7.94 µM [inhibitor, partial curve]",
Cn1nnnc1SCCNCc1ccccc1OCc1ccc(Cl)cc1Cl,"inconclusive: 10 µM [inhibitor, single point]",
C[C@H](N)C(=O)N1CCC(C(=O)N[C@@H](Cc2ccccc2)C(=O)Nc2ccc(F)cc2)CC1,"inconclusive: 8.91 µM [inhibitor, partial curve, poor fit]",
CC(OC(=O)c1cc(S(=O)(=O)Nc2ccc(F)cc2)ccc1Cl)C(=O)Nc1ccc2c(c1)OCCO2 (stereo unspecified),"inconclusive: 28.2 µM [inhibitor, single point]",
COc1ccc(N2CCN(C(=O)c3cc(-c4cc(OC)ccc4OC)nc4ccccc34)CC2)cc1,"inconclusive: 11.2 µM [inhibitor, single point]",
CCN(CC(=O)Nc1cccc(C#N)c1)CC(=O)Nc1cccc(OC)c1,"inconclusive: 7.08 µM [inhibitor, partial curve, poor fit]",
CCCCCc1ccc(OCCOCCn2c[n+](C)c3ccccc32)c(CCCCC)c1,"inconclusive: 14.1 µM [inhibitor, partial curve, poor fit]",
O=C(C=Cc1ccccc1)c1c[nH]c2ccccc2c1=O,"inconclusive: 7.08 µM [inhibitor, partial curve, poor fit]",
O=C(c1cccc(C(F)(F)F)c1)C1CCCN(Cc2cccn2-c2ncccn2)C1 (stereo unspecified),"inconclusive: 11.2 µM [inhibitor, single point]",
CCCCc1ccc(NC(=O)c2ccc(N(C)S(C)(=O)=O)cc2)cc1,"inconclusive: 0.501 µM [inhibitor, full curve, poor fit]",
COc1ccc(C(=O)N2c3ccccc3C(C)(c3ccc(Cl)cc3)CC2(C)C)cc1 (stereo unspecified),,inactive: 0.351%
